Source: the supplement of paper PMC10322689
Some of the results follow. Many values rest on one well or one pass, so single values are uncertain.

The compounds below were run on mouse mesenchymal chondrosarcoma cells (HEY1-NCOA2) (assay: XTT absorbance relative to DMSO control (cell viability) (fraction of DMSO control); higher = more viable cells / less growth inhibition).

| SMILES | XTT absorbance |
| --- | --- |
| CC(=O)O[C@H]1C(=O)[C@@]2(C)[C@H]([C@H](OC(=O)c3ccccc3)[C@]3(O)C[C@H](OC(=O)[C@H](O)[C@@H](NC(=O)c4ccccc4)c4ccccc4)C(C)=C1C3(C)C)[C@]1(OC(C)=O)CO[C@@H]1C[C@@H]2O [Paclitaxel] | 0.6 |
| NS(=O)(=O)c1ccc(Nc2nc(OCC3CCCCC3)c3[nH]cnc3n2)cc1 | 0.915 |
| O=c1oc2c(O)c(O)cc3c(=O)oc4c(O)c(O)cc1c4c23 [Ellagic acid] | 0.97 |
| C[C@]1(c2nc3c(C(N)=O)cccc3[nH]2)CCCN1 [ABT-888 (Veliparib)] | 0.98 |
| CO[C@H]1C[C@@H]2CC[C@@H](C)[C@@](O)(O2)C(=O)C(=O)N2CCCC[C@H]2C(=O)O[C@H]([C@H](C)C[C@@H]2CC[C@@H](OC(=O)C(C)(CO)CO)[C@H](OC)C2)CC(=O)[C@H](C)/C=C(\C)[C@@H](O)[C@@H](OC)C(=O)[C@H](C)C[C@H](C)/C=C/C=C/C=C/1C [temsirolimus] | 0.819 |
| Cc1ccc(Nc2nccc(N(C)c3ccc4c(C)n(C)nc4c3)n2)cc1S(N)(=O)=O [pazopanib] | 0.835 |
| O=C(Nc1cccc2cccnc12)c1ccc(N2C(=O)[C@@H]3[C@H](C2=O)[C@@H]2C=C[C@H]3C2)cc1 [IWR-1-endo] | 0.91 |
| O=Nc1c(-c2c(O)[nH]c3ccccc23)[nH]c2ccccc12 [indirubin-3'-monoxime] | 0.957 |
| OC[C@H]1NC[C@H](O)[C@@H](O)[C@@H]1O [Deoxynojirimycin] | 0.919 |
